Measured values: PubChem BioAssay AID686979 (National Center for Advancing Translational Sciences (NCATS), 2013)
“And” between values parts separate entries of the source, which are not always exact repeats. Identical values can stand only once. Out of some 420,000 compounds screened, about 50,000 (12%) were called active. The shares of active, inactive and inconclusive entries below differ from those in the screen. Calls follow the shape of the dose curve; as a rule, active = well fitted inhibition curve with a large enough effect; inconclusive = small, poorly fitted or top-dose-only effect; inactive = flat fitted curve, though single readings scatter. Potencies beside an inconclusive call are fits to weak or partial responses and may not hold up.
% is scaled to controls: 0 for no effect and ±100 for the full control effect; potency is read from the fitted curve at half-maximal effect; tags tell the direction and shape of the fitted curve.

Test: qHTS for Inhibitors of human tyrosyl-DNA phosphodiesterase 1 (TDP1): qHTS in cells in presence of CPT; also: nearly all actives have a fitted effect of over 55% in size
Conditions: chicken DT40 Tdp1-/-;hTDP1 cells + 20 nM CPT, ATP luminescence, 48 h; activity change, negative = growth inhibition: at 46.2 µM (top of the series) unless noted
Procedure, shortened: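 Chicken DT40 Tdp1-/- cells complemented with human TDP1, 400 cells/well, exposed to compounds plus 20 nM camptothecin for at least 48 h at 37 C; viability read as ATP content by CellTiter-Glo luminescence.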
For `COC(=O)c1cccc(N2C(=O)C3CC=CCC3C2=O)c1` (centres undefined), the Potency was inconclusive: 23.1 µM [inhibitor, single point].
In the case of `CCOC(CCNC(=O)c1cc2c(=O)[nH]c3ccccc3c2s1)OCC`, the Potency is reported as inconclusive: 23.1 µM [inhibitor, single point].
For `COCOCCn1cc(CN2CCS(=O)(=O)N(Cc3ccc(-c4ccc(F)cc4)cc3)C(CC(C)C)C2=O)nn1` (centres undefined), the Potency was active: 25.9 µM.
With `CC1CCN(C(=O)CCS(=O)(=O)c2cc3c(cc2Cl)NC(=O)CO3)CC1` the “activity change, negative = growth inhibition” value was inactive: -19%.
For `COC(=O)[C@]1(Cc2ccccc2)N[C@H](CN(C)S(=O)(=O)c2ccc(OC(F)(F)F)cc2)[C@@H]2C(=O)N(C)C(=O)[C@@H]21`, the Potency was inconclusive: 18.4 µM [inhibitor, single point].
In the case of `COc1ccc(C(C)(NC(C)=O)c2nc(-c3cncnc3)cs2)cc1` (centres undefined), the “activity change, negative = growth inhibition” value is reported as inactive: -17.6%.
With `O=c1cc(O)n(-c2ccccc2)c(=S)[nH]1` the Potency was active: 20.6 µM.
With `Cc1cc(-c2nn3c(C)nnc3s2)ccc1NC(=O)C(C)(C)C` the “activity change, negative = growth inhibition” value was inactive: 2.33%.
For `CC1=C(CC[C@@H](C)CO)OC2CC3C4CCC5CC(O)CCC5(C)C4CC(=O)C3(C)C12` (some centres undefined), the Potency was inconclusive: 23.1 µM [inhibitor, single point].
With `O=c1c2cc([N+](=O)[O-])cc([N+](=O)[O-])c2[nH]n1-c1ccccc1` the Potency was inconclusive: 0.731 µM [inhibitor, full curve, poor fit].
In the case of `CCOc1ccccc1NC(=O)Nc1cccc(NC(C)=O)c1`, the “activity change, negative = growth inhibition” value is reported as inactive: -17.7%.
In the case of `Cc1ccc(S(=O)(=O)N(C)C)cc1NC(=O)C(C)OC(=O)CC1CC2CCC1C2` (centres undefined), the Potency is reported as inconclusive: 16.4 µM [inhibitor, partial curve, poor fit].
In the case of `Fc1ccc(Nc2nc(SCc3cccc(F)c3)nc3ccccc23)cc1`, the Potency is reported as active: 14.6 µM.
In the case of `Cc1cccc(CC(=O)NC2CC(=O)N(c3ccc4c(c3)OCCO4)C2)c1` (centres undefined), the “activity change, negative = growth inhibition” value is reported as inactive: -15%.
In the case of `CCOc1ccc(S(=O)(=O)NCCC(=O)NCCOc2ccccc2OC)cc1`, the Potency is reported as inconclusive: 25.9 µM [inhibitor, partial curve].
For `CCCCN1C(=O)CC2CCOC21C` (centres undefined), the “activity change, negative = growth inhibition” value was inactive: 1.78%.
In the case of `CCN(CC)S(=O)(=O)c1ccc(NC(=O)c2nn(C)c3c2CSc2ccccc2-3)cc1`, the Potency is reported as inconclusive: 20.6 µM [inhibitor, single point].
With `O=Cc1cccc(OCc2cccc3ccccc23)c1` the Potency was active: 4.11 µM.
For `O=C1C=C(Nc2ccccc2C(=O)O)c2ccccc2C1=O`, the Potency was inconclusive: 18.4 µM [inhibitor, single point].
For `N[C@@H](C(=O)O)c1cc(O)ccc1Cl`, the Potency was active: 2.37 µM.
For `O=C1c2ccccc2C(c2nnnn2-c2ccc3c(c2)OCCO3)N1Cc1cccc(F)c1` (centres undefined), the Potency was inconclusive: 29.1 µM [inhibitor, single point] and inconclusive: 25.9 µM [inhibitor, single point].
In the case of `COc1ccc(NC(=O)c2nc(C)n(-c3ccc([N+](=O)[O-])cc3)n2)cc1`, the “activity change, negative = growth inhibition” value is reported as inactive: 6.11%.
In the case of `OCCC1CN(Cc2nc(-c3ccccc3)cs2)CCN1C1CCCC1` (centres undefined), the Potency is reported as inconclusive: 14.6 µM [inhibitor, partial curve].
With `CCc1cccc2c(C(O)c3c[nH]c4ccccc34)c[nH]c12` (centres undefined) the Potency was active: 4.47 µM.
For `Cc1ccc(C(NC(=O)N2CCOCC2)C(Cl)(Cl)Cl)cc1F` (centres undefined), the Potency was inconclusive: 29.1 µM [inhibitor, single point].
For `CCC(=O)N1CCc2cc(Br)cc(S(=O)(=O)CCC(=O)Nc3ccc(CC)cc3)c21`, the “activity change, negative = growth inhibition” value was inactive: -8.45%.
With `N#CCCn1c(=O)c(-c2cccc(C#N)c2)nc2cnc(Oc3cccc(Cl)c3)nc21` the Potency was inconclusive: 16.4 µM [inhibitor, single point].
With `CCO[C@@H]1OC(C(=O)NCc2ccccc2)=C[C@H](C(C)(C)C)[C@H]1CCCO` the Potency was inconclusive: 29.1 µM [inhibitor, single point].
With `COc1ccccc1N1CCN(C(c2cccs2)C(C)NS(=O)(=O)c2ccccc2)CC1` (centres undefined) the Potency was inconclusive: 23.1 µM [inhibitor, single point].
For `CCOC(=O)c1ccc(N2C(=O)c3[nH]nc(-c4ccc(C)cc4)c3C2c2ccc(O)cc2)cc1` (centres undefined), the Potency was inconclusive: 20.6 µM [inhibitor, single point].
In the case of `CC1(C)CC(C(CC(=O)Nc2nccs2)c2ccccc2)CCO1` (centres undefined), the Potency is reported as inconclusive: 18.4 µM [inhibitor, single point].
In the case of `CCOc1ccc(Cc2n[nH]c(=S)n2N)cc1`, the “activity change, negative = growth inhibition” value is reported as inactive: -5.88%.
For `COc1ccc(C2C3=C(COC3=O)Oc3cc4c(cc32)OCO4)cc1OC` (centres undefined), the Potency was active: 1.41 µM and active: 1.84 µM.
With `CCC(=O)Nc1ccc2c(c1)OC[C@@H](C)N(Cc1cccc(F)c1)C[C@@H](C)[C@@H](OC)CN(C)C2=O` the Potency was inconclusive: 25.9 µM [inhibitor, single point].
For `CC(=O)c1ccc(OC(C)C(=O)NCC2(N3CCOCC3)CCCCC2)cc1` (centres undefined), the Potency was inconclusive: 29.1 µM [inhibitor, single point].
For `CC(C)C#Cc1ccc2c(c1)O[C@@H](CN(C)C(=O)c1cnccn1)[C@@H](C)CN([C@@H](C)CO)S2(=O)=O`, the activity change, negative = growth inhibition was inconclusive: -35.1% [inhibitor].
For `CC(=O)c1ccc(N=Nc2ccc(N)cc2)cc1`, the Potency was inconclusive: 29.1 µM [inhibitor, single point].
For `CCCN(CC1CC1)C(=O)CCc1nnc(C(OC)c2ccccc2)o1` (centres undefined), the Potency was inconclusive: 25.9 µM [inhibitor, single point].
For `Cc1cc2nc3n(c2cc1C)CC1CC(C(=O)NCc2cccc(Br)c2)N(C)C31` (centres undefined), the “activity change, negative = growth inhibition” value was inactive: -21.1%.
For `O=C(COc1ccc([N+](=O)[O-])cc1)Nc1ccc(N2CCN(C(=O)c3ccco3)CC2)cc1`, the Potency was active: 9.2 µM.
In the case of `CN1C(=O)C(C)(C)c2cc(S(=O)(=O)N3CCCC(C(=O)NCc4ccc(F)cc4)C3)ccc21` (centres undefined), the Potency is reported as inconclusive: 16.4 µM [inhibitor, partial curve].
With `COc1ccnc(Oc2ccc(F)cc2)c1C(=O)N/C=N/OCc1ccc(F)cc1Cl` the Potency was inconclusive: 29.1 µM [inhibitor, single point].
With `Cc1c(CCOC(=O)CC23CC4CC(CC(C4)C2)C3)sc[n+]1CC(=O)c1ccccc1` the Potency was active: 20.6 µM.
With `CCOC(=O)CSc1cc(C(F)(F)F)nc(-c2ccccn2)n1` the Potency was inconclusive: 29.1 µM [inhibitor, single point].
For `Cc1ccc(C(=O)NCC2CCCO2)cc1N1CCCC1=O` (centres undefined), the Potency was inconclusive: 29.1 µM [inhibitor, single point].
For `CCOC(=O)c1cnc2ccc(OCC)cc2c1NCCN1CCOCC1`, the Potency was inconclusive: 18.4 µM [inhibitor, single point].
For `COc1ccc(C(=O)Nc2cccc(/C(C)=N\NC(=O)c3ccoc3C)c2)cc1OC`, the Potency was inconclusive: 23.1 µM [inhibitor, single point].
For `COc1ccc(OC)c(/C=C2\SC(N3CCCC(C)C3)=NC2=O)c1` (centres undefined), the Potency was active: 16.4 µM.
With `COc1cccc(NS(=O)(=O)c2ccc3[nH]c4c(c3c2)CCCCCC4)c1` the Potency was active: 16.4 µM.
For `CN1C(=O)C(O)(CC(=O)c2cccnc2)c2ccccc21` (centres undefined), the Potency was active: 11.6 µM.
With `Cc1cc(C(=O)O)ccc1-n1c(C)cc(/C=C(/C#N)C(=O)Nc2ccccc2)c1C` the “activity change, negative = growth inhibition” value was inactive: -27.5%.
For `S=C(NC1CCCCC1)N1CCc2ccccc2C1`, the Potency was inconclusive: 29.1 µM [inhibitor, single point].
With `O=C(Nc1ccc(Cl)c(Cl)c1)Nc1nnc(-c2ccncc2)s1` the Potency was active: 3.26 µM.
With `CCn1c(N2CCN(S(=O)(=O)c3ccccc3C(F)(F)F)CC2)nc2ccccc21` the Potency was inconclusive: 20.6 µM [inhibitor, single point].
For `CCc1nc(Nc2ccccc2OC)c2oc3ccccc3c2n1`, the Potency was inconclusive: 10.3 µM [inhibitor, partial curve].
For `CCOC(=O)c1ccc(NC(=O)CC2Nc3cccc4cccc(c34)NC2=O)cc1` (centres undefined), the Potency was active: 2.59 µM.
For `Cc1noc(C)c1S(=O)(=O)Nc1ccc(C(=O)Nc2ccc(C(C)C)cc2)cc1`, the Potency was active: 11.6 µM.
For `O=C(O)COn1c(-c2ccccc2)nc2ccc([N+](=O)[O-])cc21`, the Potency was inconclusive: 1.46 µM [inhibitor, partial curve].
In the case of `CCc1ccc(CN(C(=O)c2ccc(OC)cc2)C2CCS(=O)(=O)C2)cc1` (centres undefined), the Potency is reported as inconclusive: 11.6 µM [inhibitor, partial curve].
In the case of `COC(=O)CN1C(=O)C(O)(CC(=O)c2ccccc2)c2ccccc21` (centres undefined), the Potency is reported as inconclusive: 29.1 µM [inhibitor, single point].
With `CC1=C(C(=O)N2CCOCC2)CC(CC(=O)NCCCCc2ccccc2)C(=O)N1Cc1ccc(C(C)(C)C)cc1` (centres undefined) the Potency was active: 23.1 µM.
With `CCCc1ccc(S(=O)(=O)N2CCN(C(=O)c3cc(C)on3)CC2)cc1` the Potency was inconclusive: 25.9 µM [inhibitor, single point].
For `CCCCC(=O)Nc1nc(C)c(-c2csc(Nc3cc(OC)ccc3OC)n2)s1`, the Potency was active: 6.51 µM.
In the case of `CC1CCN(CC(=O)n2c3c(c4ccccc42)CCCC3)CC1`, the Potency is reported as inconclusive: 29.1 µM [inhibitor, single point].
With `CC(C)N1CC2(CC(c3ccc(Cl)cc3Cl)=NO2)CN1C(=O)c1ccc(C(C)(C)C)cc1` (centres undefined) the Potency was active: 14.6 µM.
For `COc1ccccc1NC(=O)c1ccc(NC(=O)CN(C)Cc2ccccc2F)cc1`, the “activity change, negative = growth inhibition” value was inactive: -8.25%.
For `COc1ccc2c(c1)CC[C@@H]1[C@@H]2CC[C@]2(C)[C@@H](C(C)=O)C[C@@H]12`, the Potency was inconclusive: 7.31 µM [inhibitor, partial curve].
In the case of `Cc1c(Cl)cccc1NC(=O)CC(NCCN1CCOCC1)C(=O)O` (centres undefined), the “activity change, negative = growth inhibition” value is reported as inactive: -8.63%.
For `CC(C)N=c1cc2n(-c3ccc(Cl)cc3)c3ccccc3nc-2cc1Nc1ccc(Cl)cc1`, the Potency was active: 13 µM.
